Sequences with one replicate were seen in a single cluster, so their values are uncertain.
Each sequence was assayed on ATP (assay: switch fluorescence ratio, 500 uM ATP over buffer (Cy3 cluster intensity, sum of 5 cycles each) (fold (ratio)); higher = stronger signal-on switching upon ATP binding; sequences stand for … in TCGTCGGCAGCGTCAGATGTGTATAAGAGACAGTTTTTTTTTTTTTTTTTTTTTTTTT…TC). Conditions: aptamer strand: ATP DNA aptamer (quencher-CACCTGGGGGAGTATTGCGGAGGAAGG + anchor), 100 nM annealed; ATP concentration: 500 uM; one replicate.
Outline: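 Imaging in selection buffer was followed by imaging after 15 min with 500 uM ATP at 22 °C, for Cy3-labelled switching-strand clusters annealed to 100 nM quencher-labelled ATP aptamer on a modified Illumina MiSeq flow-cell. Five of these buffer/ATP cycles ran, separated by NaOH stripping and re-annealing. The fluorescence ratio per cluster is summed target-cycle over summed buffer-cycle Cy3 intensity, averaged per switch-domain sequence; clusters outside 100-1000 RFU were removed.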
GATCTAGGAC was tested, and the switch fluorescence ratio was 0.992. GATGATCATC was tested, and the switch fluorescence ratio was 1.02. Sequence TCAGTACTA has a switch fluorescence ratio of 1.02. For GTCTCTACGG, the switch fluorescence ratio was 0.979. AGTTTGCATT was tested, and the switch fluorescence ratio was 1.06. In the case of CGAGCGATTC, the switch fluorescence ratio is reported as 6.01. Sequence TGACGATCAG has a switch fluorescence ratio of 0.969. TAAGATTGAC gave a switch fluorescence ratio of 0.999. With GATGTTCTGG the switch fluorescence ratio was 0.994. Work on TGTCAGAAAC yielded a switch fluorescence ratio of 0.948. In the case of CGTATGCCTC, the switch fluorescence ratio is reported as 0.949. ACCATAAACG gave a switch fluorescence ratio of 1.09. ACCTTATAGG showed a switch fluorescence ratio of 1.03. TAGTATCACG was tested, and the switch fluorescence ratio was 1.01. CTCTTTTGAT was tested, and the switch fluorescence ratio was 1.01. Work on CTTTTGTGCC yielded a switch fluorescence ratio of 1.04. CAGTTTCCAC gave a switch fluorescence ratio of 0.984. Sequence TGGCGCACAG has a switch fluorescence ratio of 1.04. For AGGCAGCTGA, the switch fluorescence ratio was 1.03. TTAGCTCGTA showed a switch fluorescence ratio of 1.01. Work on CCAAAGACAT yielded a switch fluorescence ratio of 1.04. CCTCACCATA gave a switch fluorescence ratio of 3.13. GCTTTAAATC was tested, and the switch fluorescence ratio was 1.01. TTCGTGTGAC was tested, and the switch fluorescence ratio was 1.19. Sequence CAGTGTAAGA has a switch fluorescence ratio of 0.979. Sequence ACTCTATAC has a switch fluorescence ratio of 2.15. Work on TGCAAAATCA yielded a switch fluorescence ratio of 0.975. For CGTCCCCA, the switch fluorescence ratio was 1.16. In the case of CTTACTTTTA, the switch fluorescence ratio is reported as 0.988. ATTGGTTTGA was tested, and the switch fluorescence ratio was 0.968. With AGGTCCAGGC the switch fluorescence ratio was 1.06. ACACATCGCG gave a switch fluorescence ratio of 0.984. Sequence GACTCTCAT has a switch fluorescence ratio of 1.03. Sequence AATCATTTAT has a switch fluorescence ratio of 0.975. Work on CTCTAAGGCG yielded a switch fluorescence ratio of 1.04. In the case of GTTATCCTAA, the switch fluorescence ratio is reported as 0.93. With TTATCCCGT the switch fluorescence ratio was 0.98. With GGTAGTATAT the switch fluorescence ratio was 0.987. Sequence GAGTTCTGGG has a switch fluorescence ratio of 0.987. Sequence TCAGCTTACG has a switch fluorescence ratio of 1.07. CCATCAAGCA showed a switch fluorescence ratio of 1.45. With CGATCTCAGT the switch fluorescence ratio was 0.938. With AATGCACTAT the switch fluorescence ratio was 1.03. For CAAAGCTAAT, the switch fluorescence ratio was 1.06. ATAACTTTTA showed a switch fluorescence ratio of 0.991. CTTGAAAACA gave a switch fluorescence ratio of 0.996. ATTTCTAAGG was tested, and the switch fluorescence ratio was 1.02. Work on GGAAGTGACC yielded a switch fluorescence ratio of 0.966. With TGAAAACTGT the switch fluorescence ratio was 0.974. ACGGACGATT showed a switch fluorescence ratio of 1.32. Work on ATCTGCAAGG yielded a switch fluorescence ratio of 1.19. Work on CTGAACTAAT yielded a switch fluorescence ratio of 1.02. For CTGTAAGTAA, the switch fluorescence ratio was 1.04. CCTATCCAGG gave a switch fluorescence ratio of 1.59. Work on ATCTTTAATG yielded a switch fluorescence ratio of 1.01. TGCTAGCGG was tested, and the switch fluorescence ratio was 1.01. AAATGTTGCG was tested, and the switch fluorescence ratio was 1. Work on TTATTCGGG yielded a switch fluorescence ratio of 0.983. In the case of TTCGTAGTGC, the switch fluorescence ratio is reported as 1.15. For CGTACCAGGA, the switch fluorescence ratio was 1.05. For GTGATCATAT, the switch fluorescence ratio was 0.991. For TCCTTGTTAT, the switch fluorescence ratio was 0.97. CAGGAGAAAC was tested, and the switch fluorescence ratio was 1.09. Sequence CAAAAACTTT has a switch fluorescence ratio of 1.08. For TGATATATTA, the switch fluorescence ratio was 0.929. ATAGAGGGTT showed a switch fluorescence ratio of 0.982. For GTACGCAACC, the switch fluorescence ratio was 3.52. TCCTGCCCAG was tested, and the switch fluorescence ratio was 1.37. In the case of GGGCAATGAA, the switch fluorescence ratio is reported as 1.03. In the case of AAAAGCAACT, the switch fluorescence ratio is reported as 1.04. AACTTTTTG showed a switch fluorescence ratio of 0.974. For TCTTCTCAGG, the switch fluorescence ratio was 1.1. Work on GGGGTTCCC yielded a switch fluorescence ratio of 0.986. With GTCCGACATC the switch fluorescence ratio was 1.4. TCCGCTTAGA gave a switch fluorescence ratio of 1.53. With CATAAGGGGT the switch fluorescence ratio was 1.03. Work on GCGTTAATTA yielded a switch fluorescence ratio of 0.958. With ACCGAGAATA the switch fluorescence ratio was 1.06. In the case of CAACACTGTT, the switch fluorescence ratio is reported as 0.962. With AAGACAGATT the switch fluorescence ratio was 1.01. AGTACAGTG was tested, and the switch fluorescence ratio was 1.07. GCGTGCTAGG was tested, and the switch fluorescence ratio was 0.959. In the case of GGTATCCAAT, the switch fluorescence ratio is reported as 0.95. Work on TAGGTGACG yielded a switch fluorescence ratio of 1.05. With CCGATACAGT the switch fluorescence ratio was 2.03. In the case of GGCAGACGGA, the switch fluorescence ratio is reported as 1.04. TTAACTCTTT gave a switch fluorescence ratio of 0.97. GCTTCATTGC showed a switch fluorescence ratio of 1. In the case of GCTACTTCC, the switch fluorescence ratio is reported as 2.22. AATAGGATTC was tested, and the switch fluorescence ratio was 0.966. In the case of TCCCTCTCTG, the switch fluorescence ratio is reported as 1.02. For GGTGGTATGT, the switch fluorescence ratio was 0.993. Sequence GTCCTGTGAG has a switch fluorescence ratio of 1.02. GGGAGTTACA showed a switch fluorescence ratio of 0.979. GCTAGAGTTT gave a switch fluorescence ratio of 1.02. Sequence GACCATTTGC has a switch fluorescence ratio of 0.962. TATCTGCGT was tested, and the switch fluorescence ratio was 1.02. GTGATACGGC showed a switch fluorescence ratio of 1.07. With GCAATGTCAC the switch fluorescence ratio was 2.65. In the case of CGCTAGATGT, the switch fluorescence ratio is reported as 0.973. TTGATGTGGC was tested, and the switch fluorescence ratio was 1.03.
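Also: ATP exposure 15 min at 22 °C before imaging.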
